Test results from PubChem BioAssay AID1460 (National Center for Advancing Translational Sciences (NCATS), 2008).
“And” between values parts separate entries of the source, which are not always exact repeats. Equal values may be shown once. Screen size: about 270,000 compounds; about 5,800 (2.1%) were called active. The shares of active, inactive and inconclusive entries below differ from those in the screen. The call rests on the fitted dose curve; in most records, active means well fitted inhibition curve with a large enough effect; inconclusive means small, poorly fitted or top-dose-only effect; inactive means flat fitted curve, though single readings scatter. Potencies beside an inconclusive call are fits to weak or partial responses and may not hold up.

What follows are compounds tested against Microtubule-associated protein tau (Homo sapiens) (UniProt P10636) (assay: qHTS for Inhibitors of Tau Fibril Formation, Thioflavin T Binding). Conditions: recombinant tau K18 P301L (four-repeat tau fragment), heparin-induced fibrillization, ThT fluorescence; series mostly up to 57.4 µM.
How it was run: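 Recombinant human tau K18 fragment […] carrying P301L, 15 uM unlabeled plus 0.24 uM Alexa 594-labeled, was fibrillized with 20 uM heparin in 100 mM sodium acetate pH 7 for 6 hr at 37 C; 30 uM ThT fluorescence read after 1 hr.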
Further: nearly all actives have a fitted effect of over 55% in size.
Potency means the concentration at half of the fitted maximal effect; tags describe the fitted curve by direction and shape.

Sequence of UniProt P10636 (P10636 whole entry, looked up, the tested form may be a part): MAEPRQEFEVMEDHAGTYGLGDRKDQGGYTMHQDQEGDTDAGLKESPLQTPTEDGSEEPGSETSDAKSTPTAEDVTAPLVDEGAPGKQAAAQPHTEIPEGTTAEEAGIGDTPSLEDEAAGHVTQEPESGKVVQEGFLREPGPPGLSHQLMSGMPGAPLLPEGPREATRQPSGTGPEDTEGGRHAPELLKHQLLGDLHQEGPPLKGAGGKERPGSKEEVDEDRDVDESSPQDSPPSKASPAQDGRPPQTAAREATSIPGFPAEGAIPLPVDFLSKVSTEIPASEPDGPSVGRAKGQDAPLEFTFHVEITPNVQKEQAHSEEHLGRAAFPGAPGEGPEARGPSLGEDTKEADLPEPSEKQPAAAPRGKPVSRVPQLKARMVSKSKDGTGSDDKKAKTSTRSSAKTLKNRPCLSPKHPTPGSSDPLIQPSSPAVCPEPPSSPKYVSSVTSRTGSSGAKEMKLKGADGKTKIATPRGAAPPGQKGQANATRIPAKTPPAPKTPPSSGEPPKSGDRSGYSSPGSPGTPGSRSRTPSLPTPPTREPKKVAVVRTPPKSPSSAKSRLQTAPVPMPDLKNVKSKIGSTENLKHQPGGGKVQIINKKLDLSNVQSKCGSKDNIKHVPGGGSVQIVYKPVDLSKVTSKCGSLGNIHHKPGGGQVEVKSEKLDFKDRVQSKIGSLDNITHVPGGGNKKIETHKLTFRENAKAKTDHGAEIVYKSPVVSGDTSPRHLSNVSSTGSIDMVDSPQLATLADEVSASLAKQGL

| Compound | Potency |
| --- | --- |
| Cc1cccc(NC(=S)NNC(=S)NC2CCCCC2)c1C | inactive |
| CCNC(=O)NC(=O)COC(=O)c1ccccc1SCC(=O)NC(=O)NCC | inconclusive: 3.16 µM [inhibitor, single point] |
| COc1ccc(OC)c(NC2=C(Cl)C(=O)N(Cc3ccccc3)C2=O)c1 | inconclusive: 17.8 µM [inhibitor, partial curve] |
| CN1C(=O)CC(c2ccco2)Sc2ccccc21 (centres undefined) | inactive |
| COc1ccc(N2CCN(C(=O)c3ccc(Oc4ccc(C(F)(F)F)cn4)cc3)CC2)cc1 | inconclusive: 10 µM [inhibitor, partial curve] |
| c1ccc(-c2nnc(CN3CCN(c4ccccc4)CC3)o2)cc1 | inconclusive: 4.47 µM [inhibitor, single point] |
| COc1ccc(-c2noc(COc3ccc(Br)cc3C)n2)cc1OC | inconclusive: 2.24 µM [inhibitor, full curve] |
| Cn1c(C(=O)Nc2ccc3c(c2)OCCO3)cc2c(=O)n(C)c3ccccc3c21 | inconclusive: 2.24 µM [inhibitor, full curve] |
| CNC(=S)Nc1cccc(S(=O)(=O)NC2=NCCC2)c1 | inactive |
| Cc1c2cnn(-c3ccccc3)c(=O)c2c(C)n1CCCC(=O)N1CCN(c2ncccn2)CC1 | inconclusive: 5.62 µM [inhibitor, partial curve] |
| CCOc1ccc(C2=Nc3ccccc3C(c3ccc(N4CCOCC4)cc3)=NN2)cc1 | inconclusive: 14.1 µM [inhibitor, partial curve] |
| O=C(COc1ccc(Cl)cc1)NCc1nnc(SCC(=O)N2CCCC2)o1 | inactive |
| O=C(O)c1ccc2c3c1cccc3c(=O)n1c3ccccc3nc21 | inconclusive: 15.8 µM [inhibitor, partial curve] |
| CCOc1ccc(C(=O)Nc2ccc3c(c2)OCCO3)cc1OC | inconclusive: 28.2 µM [inhibitor, single point] |
| Cc1ccc(OS(=O)(=O)c2ccccc2)c(/C=N/N=C2\NC(=O)C(C)S2)c1 (centres undefined) | inactive |
| Cc1cc(NS(=O)(=O)c2ccc(NC(=O)/C=C/c3ccco3)cc2)nc(C)n1 | inconclusive: 17.8 µM [inhibitor, partial curve] |
| CCOc1ccc(C2C(C(=O)C3CC3)N3C=C(C#N)C=CC3C2(C#N)C#N)cc1 (centres undefined) | active: 15.8 µM |
| N#CC(=C1CCCC1)c1nc(-c2ccccc2)cs1 | inconclusive: 39.8 µM [inhibitor, single point] |
| COc1ccccc1CNc1cc(CSc2ccc(Cl)cc2)nc(C)n1 | inconclusive: 12.6 µM [inhibitor, partial curve, poor fit] |
| CCN(CC)c1ccc(NC(=O)c2cc(Cl)ccc2OC)cc1 | inconclusive: 14.1 µM [inhibitor, partial curve] |
| Oc1ccc(CN2CCCCC2)c2cccnc12 | inconclusive: 8.91 µM [inhibitor, partial curve] |
| O=[N+]([O-])c1cc([N+](=O)[O-])c2cccnc2c1Oc1ccccc1O | inconclusive: 14.1 µM [inhibitor, partial curve] |
| O=C(O)c1ccc(N/N=C/c2ccc(-c3ccccc3)cc2)cc1 | active: 8.91 µM |

| Compound | Potency |
| --- | --- |
| COc1ccc(OC)c(S(=O)(=O)N(C)CC(=O)N2CCN(c3cccc(Cl)c3)CC2)c1 | inconclusive: 39.8 µM [inhibitor, single point] |
| O=[N+]([O-])c1ccc(-c2cn(-c3ccccc3F)c(=S)[nH]2)cc1 | inconclusive: 5.01 µM [inhibitor, partial curve] |
| CCCCOC(=O)c1ccc(NC(=O)c2cnc3n(c2=O)CCS3)cc1 | inconclusive: 22.4 µM [inhibitor, partial curve] |
| Cc1ccc2nc(-c3ccc(N)cc3)sc2c1 | active: 5.62 µM |
| CCOC(=O)C1=C(C)N(CC(C)C)C(=O)/C1=C\c1ccc(OCC(=O)Nc2ccccc2)cc1 | inconclusive: 14.1 µM [inhibitor, partial curve] |
| O=C(O)c1ccc(NC(=O)c2cn(-c3ccccc3)nc2-c2ccc(Br)cc2)cc1 | inconclusive: 25.1 µM [activator, single point] and inconclusive: 35.5 µM [activator, single point] |
| Cc1cc(O)ccc1N/C=C(\C#N)c1nc2ccccc2o1 | inactive |
| Cc1ccc(OCC(=O)Nc2cccc(C(=O)OCc3cc(=O)n4nc(C)sc4n3)c2)cc1 | inconclusive: 0.224 µM [inhibitor, full curve] |
| O=C(CC1N=C2c3ccccc3N=C(SCc3cccc(F)c3)N2C1=O)NCc1ccc2c(c1)OCO2 (centres undefined) | inconclusive: 39.8 µM [inhibitor, single point] |
| CCC(O)c1cc2c(cc1NC(=O)c1ccccc1F)OCCO2 (centres undefined) | inactive |
| CCc1ccc(OCC(=O)Nc2ccc(-c3nc4ncccc4o3)cc2)cc1 | inconclusive: 0.316 µM [inhibitor, full curve] |
| Cc1ccc(SCc2[nH]nc3c2C2(C(=O)Nc4ccc([N+](=O)[O-])cc42)C(C#N)=C(N)O3)cc1 (centres undefined) | inconclusive: 25.1 µM [inhibitor, partial curve] |
| O=C(c1ccco1)N1CCN(C(=O)C2CC(c3ccc(Cl)c(Cl)c3)=NO2)CC1 (centres undefined) | inconclusive: 28.2 µM [inhibitor, single point] |
| C[C@]12CCC(=O)C[C@@H]1CC[C@@H]1[C@@H]2CC[C@]2(C)C=CC[C@@H]12 | inconclusive: 22.4 µM [inhibitor, single point] |
| O=C(CSc1nc2ccccc2s1)NNC(=S)Nc1ccc(Cl)cc1 | inconclusive: 14.1 µM [inhibitor, partial curve] |
| O=C(NCCN1CCCCC1)c1ccc(Cn2c(SCc3cccc(F)c3)nc3cccnc32)cc1 | inactive |
| CC(=O)Nc1ccc(C(=O)Cn2nnc3ccccc3c2=O)cc1 | inactive |
| Cc1nn(C)c(C)c1/C=N/NC(=O)c1csc2ccccc12 | inconclusive: 39.8 µM [inhibitor, partial curve] |
| COc1cccc(OCc2nnc(SCC(=O)OCc3ccccc3)o2)c1 | inconclusive: 25.1 µM [inhibitor, partial curve] |
| CCN(CC)C(=O)Cn1cc(/C=C(\C#N)C(=O)N2CCN(c3ccccc3)CC2)c2ccccc21 | inconclusive: 20 µM [inhibitor, single point] |
| CN(C)/C=C/C(=O)c1cccc(Oc2ncccn2)c1 | inconclusive: 20 µM [inhibitor, single point] |
| COC(=O)c1cnc(N2CCN(c3ccc(F)cc3)CC2)c2ccccc12 | inconclusive: 15.8 µM [inhibitor, partial curve] |
| O=C(COC(=O)/C=C/C(=O)OCC(=O)Nc1ccccc1F)Nc1ccccc1F | inconclusive: 0.501 µM [inhibitor, partial curve] |

| Compound | Potency |
| --- | --- |
| CNC(=O)c1cccn1-c1ccsc1C(=O)OC | inconclusive: 20 µM [inhibitor, partial curve] |
| CCCSc1nnc(NC(=O)Nc2ccc(C)cc2)s1 | inactive |
| COc1ccc(CCNC(=O)c2ccc3c(Cl)c4c(nc3c2)CCCC4)c(OC)c1 | inconclusive: 8.91 µM [inhibitor, partial curve, poor fit] |
| CC(C)c1ccc(NC2(C#N)C(=O)Nc3ccccc32)cc1 (centres undefined) | inconclusive: 22.4 µM [inhibitor, partial curve] |
| c1ccc(CSc2ccc(-c3ccc4c(c3)OCO4)nn2)cc1 | inconclusive: 3.16 µM [inhibitor, full curve, poor fit] |
| OC(COCC1COc2ccccc2O1)CN1CCN(c2ccccc2)CC1 (centres undefined) | inconclusive: 14.1 µM [inhibitor, partial curve] |
| COC(=O)c1cc(=O)n(Cc2ccco2)c(=Nc2ccc(F)cc2)s1 | inconclusive: 39.8 µM [inhibitor, single point] |
| O=C(NCc1ccco1)c1ccccc1Br | inactive |
| CC1(C)NC(=O)N(CCCCOc2ccccc2[N+](=O)[O-])C1=O | inactive |
| Cc1ccc(C(=O)Nc2ccc3cn[nH]c3c2)cc1S(=O)(=O)N1CCCCC1 | inconclusive: 25.1 µM [inhibitor, single point] |
| COc1ccc(CCNC(=O)CCSCc2ccccc2Cl)cc1OC | inactive |
| CCc1cc(SC#N)ccc1N | active: 12.6 µM |
| O=C(Nc1cc(Cl)cc(Cl)c1)c1ccc(F)c(S(=O)(=O)NC2CCCCC2)c1 | inactive |
| CCCCc1ccc(NC(=O)CSc2nc3ccccc3nc2N2CCOCC2)cc1 | inconclusive: 25.1 µM [inhibitor, single point] |
| CCN1CCN(C(=O)c2ccccc2Nc2ccc(SC(F)F)cc2)CC1 | inactive |
| Cc1ccc2nc(N3CCN(c4cccc(C)c4C)CC3)c3nncn3c2c1 | inconclusive: 14.1 µM [inhibitor, partial curve] |
| Nc1ccccc1Sc1ccccc1[N+](=O)[O-] | inactive |
| C=CC1=C(C(=O)O)N2C(=O)[C@@H](NC(=O)C(N=O)c3csc(N)n3)[C@H]2SC1 (some centres undefined) | inactive |
| O=c1c2cn[nH]c2[nH]c(=S)n1-c1ccccc1F | inconclusive: 1.58 µM [inhibitor, full curve] |
| Cc1ccc(NC(=O)Cn2c(=O)n(Cc3ccc4c(c3)OCO4)c(=O)c3ccccc32)c(C)c1 | inactive |
| CC(=O)Nc1sc(NC(=O)c2ccccc2)nc1-c1cccs1 | inconclusive: 22.4 µM [inhibitor, single point] |
| O=C(Cn1c(=O)n(-c2ccccc2Cl)c(=O)c2sc3ccccc3c21)N1CCCC1 | inconclusive: 8.91 µM [inhibitor, single point] |
| Cc1c(C(=O)Nc2ccc(N3CCOCC3)cc2)oc2ccccc12 | inconclusive: 11.2 µM [inhibitor, partial curve] |
